{"source": "PubChem BioAssay AID1347073", "about": "(National Center for Advancing Translational Sciences (NCATS), 2019)", "note": "In all, about 45,000 compounds went through this assay and about 200 (0.44%) were called active. Inconclusive means that the source gave no clear call. Such entries were picked first, then a sample of the others. Calls follow the shape of the dose curve; as a rule, active = well fitted activation curve with a large enough effect; inconclusive = small, poorly fitted or top-dose-only effect; inactive = no such curve, though single readings can be large or run the other way. A potency beside an inconclusive call is a rough fit, not a confirmed value. Potency is read from the fitted curve at half-maximal effect; tags tell the direction and shape of the fitted curve."}
{"experiment": "qHTS of TDP-43 Inhibitors: NCGC Sytravon Library Screen; also: nearly all actives have a fitted effect of over 55% in size; as to growth rescue (activation): 0% is about no effect", "settings": "yeast TDP-43 toxicity rescue, BacTiter-Glo growth, 24 h; growth rescue (activation): at 46.1 µM (top of the series)", "method_in_brief": "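TDP-43-expressing yeast, pregrown in raffinose, seeded at OD600 0.02 in galactose medium with compound for 24 hr at 30 deg C. Growth read by BacTiter-Glo luminescence, so rescue of toxicity appears as activation.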"}
{"smiles": "CC1(C)CC2CC(C)(CN2C(=S)Nc2ccccc2F)C1", "note": "(stereo unspecified)", "Potency": "inconclusive: 12.6 µM [activator, single point]"}
{"smiles": "CCOc1ccccc1NC(=O)Cn1cnc2c1c(=O)n(C)c(=O)n2C", "Potency": "inactive"}
{"smiles": "COC(=O)N1CCCC(c2cc(C(=O)Nc3ccccc3Cl)no2)C1", "note": "(stereo unspecified)", "growth rescue (activation)": "inconclusive: 52.3% [activator]"}
{"smiles": "CC1(C(=O)NCc2ccc(F)c(F)c2)Cc2c(-c3cccc(C(F)(F)F)c3)ccnc2O1", "note": "(stereo unspecified)", "growth rescue (activation)": "inconclusive: 41.9% [activator]"}
{"smiles": "COc1ccc(-c2ccc(C(=O)NCc3ccc(N(C)C)cc3)c3occc23)c(C)c1", "Potency": "inconclusive: 12.6 µM [activator, partial curve]"}
{"smiles": "CCOC(=O)C1(Cc2ccc(OC)cc2)CCN(C(=O)CCc2cnccn2)CC1", "Potency": "inconclusive: 35.5 µM [activator, single point]"}
{"smiles": "Cc1occc1-c1nnc(SCC(=O)NC2CCCCC2C)o1", "note": "(stereo unspecified)", "Potency": "inconclusive: 35.5 µM [activator, single point]"}
{"smiles": "O=C(Nc1nc2c(F)cc(F)cc2s1)c1ccc2c(c1)OCCO2", "Potency": "inactive"}
{"smiles": "Cc1ccc(NC(=O)c2cc3c(s2)CCCC3)cc1", "Potency": "inconclusive: 35.5 µM [activator, single point]"}
{"smiles": "CCc1ccc(N(CC(=O)NCCc2ccccc2)C(=O)CCC(=O)Nc2ccccn2)cc1", "Potency": "inactive"}
{"smiles": "CC(=O)c1ccc(NC(=O)C(C)OC(=O)/C=C/c2ccco2)cc1", "note": "(stereo unspecified)", "Potency": "inconclusive: 35.5 µM [activator, single point]"}
{"smiles": "S=C(Nc1ccc(Cl)cc1Cl)N1CCCCC1", "Potency": "inconclusive: 12.6 µM [activator, partial curve, poor fit]"}
{"smiles": "COc1ccccc1NC(=O)c1c(Br)cnn1C", "Potency": "inconclusive: 4.47 µM [activator, partial curve, poor fit]"}
{"smiles": "CC(C)Oc1ccc(CN2CCC(n3nccc3NC(=O)CCc3ccccc3)CC2)cc1", "Potency": "inactive"}
{"smiles": "c1ccc(-c2cc3nc(NCc4ccc5c(c4)OCO5)ccn3n2)cc1", "Potency": "inconclusive: 20 µM [activator, partial curve, poor fit]"}
{"smiles": "CCOc1ccccc1N1CCN(C(=O)c2cc3c(s2)CCC3)CC1", "Potency": "inconclusive: 15.8 µM [activator, single point]"}
{"smiles": "OC(c1ccc(Cl)cc1)c1ncc(-c2ccc(Oc3ccccc3)cc2)[nH]1", "note": "(stereo unspecified)", "growth rescue (activation)": "inconclusive: -89.7% [activator]"}
{"smiles": "CCN(C(=O)c1ccc(C)c(Br)c1)c1ccccc1", "Potency": "inconclusive: 11.2 µM [activator, partial curve]"}
{"smiles": "Cc1ccc(Nc2nnc(SCC(=O)c3ccc(Br)s3)s2)c(C)c1", "Potency": "inconclusive: 35.5 µM [activator, single point]"}
{"smiles": "CC(C)n1cc(C(=O)N2CCCC(N3CCN(c4cccc(Cl)c4)CC3)C2)cn1", "note": "(stereo unspecified)", "Potency": "inactive"}
{"smiles": "COc1ccccc1N1C(=O)c2cccc3c(N(C)CCO)ccc(c23)C1=O", "Potency": "inactive"}
{"smiles": "CC(Sc1nnc(NC2CCCCC2)s1)C(=O)Nc1ccc2c(c1)C(=O)c1ccccc1C2=O", "note": "(stereo unspecified)", "Potency": "inconclusive: 20 µM [activator, partial curve, poor fit]"}
{"smiles": "CCn1c(C(=O)NCc2ccccc2C)cc2oc3ccccc3c21", "Potency": "inconclusive: 20 µM [activator, partial curve, poor fit]"}
{"smiles": "O=C(Nc1nnc(SCc2ccccc2)s1)c1cc2c(s1)CCCC2", "Potency": "inactive"}
{"smiles": "COc1ccccc1OCC(=O)NCCSCc1ccc(Cl)cc1", "Potency": "inconclusive: 20 µM [activator, partial curve, poor fit]"}
{"smiles": "N#CC1=C(N)C2=CCCC[C@H]2[C@H](c2cccc(F)c2)C1(C#N)C#N", "Potency": "inconclusive: 35.5 µM [activator, single point]"}
{"smiles": "O=C(O)CC/C(=N\\Nc1ccc(Cl)cc1)c1cccs1", "Potency": "inconclusive: 12.6 µM [activator, partial curve, poor fit]"}
{"smiles": "COCc1cc(C)n(CC(=O)Nc2ccc(N3CCOCC3)c(Cl)c2)c(=O)c1C#N", "Potency": "inactive"}
{"smiles": "Cc1nnc(NC(=O)c2ccccc2-c2ccccc2C(=O)O)s1", "Potency": "inconclusive: 35.5 µM [activator, single point]"}
{"smiles": "Cc1ccc(C)c(SCC(=O)NC2CCS(=O)(=O)C2)c1", "note": "(stereo unspecified)", "Potency": "inactive"}
{"smiles": "CCNC(=O)C1CCCN(C(=O)Cc2ccc3ccccc3c2)CC1", "note": "(stereo unspecified)", "Potency": "inactive"}
{"smiles": "CN(Cc1ccc(Cl)cc1Cl)C(=O)c1cc(=O)c2ccccc2o1", "Potency": "inconclusive: 28.2 µM [activator, partial curve, poor fit]"}
{"smiles": "CCC1(C)Cc2c(sc3nc(SC)[nH]c(=S)c23)CO1", "note": "(stereo unspecified)", "Potency": "inconclusive: 7.08 µM [activator, partial curve]"}
{"smiles": "COc1ccc(/C=C/C(=O)c2cc(Cl)ccc2O)c(OC)c1", "Potency": "inconclusive: 11.2 µM [activator, partial curve, poor fit]"}
{"smiles": "CC1(C(=O)Nc2cccc(C#N)c2)CCN1C(=O)Cc1ccc(-c2ccccc2)cc1", "note": "(stereo unspecified)", "Potency": "inconclusive: 31.6 µM [activator, single point]"}
{"smiles": "COc1cccc(Oc2ccc(S(=O)(=O)N3CCOCC3)cc2[N+](=O)[O-])c1", "growth rescue (activation)": "inconclusive: 30.2% [activator]"}
{"smiles": "O=C(N/N=C/c1ccc(OC(F)F)cc1)C1=COCCO1", "Potency": "inactive"}
{"smiles": "NC1=NC(=Nc2cccc(Cl)c2)c2ccccc21", "Potency": "inconclusive: 28.2 µM [activator, partial curve, poor fit]"}
{"smiles": "Cc1ccc(N(Cc2cc(=O)[nH]c3ccccc23)C(=O)C(C)C)c(C)c1", "Potency": "inactive"}
{"smiles": "Oc1cccc(-c2csc(C(O)(c3ccccc3)C(F)(F)F)n2)c1", "note": "(stereo unspecified)", "growth rescue (activation)": "inconclusive: 145% [activator]"}
{"smiles": "O=C(NCc1ccccc1Cl)c1ccc2sc([C@H]3C[C@H](O)[C@@H](CO)O3)nc2c1", "Potency": "inactive"}
{"smiles": "COc1ccc(-c2cc(C(=O)OCC(=O)N3CCOCC3)c3ccccc3n2)cc1", "Potency": "inconclusive: 20 µM [activator, single point]"}
{"smiles": "COc1ccc2[nH]cc(S(=O)(=O)c3ccc(C)cc3)c2c1", "Potency": "inactive"}
{"smiles": "Fc1ccccc1CNC(=S)Nc1ccc(Cl)cc1", "growth rescue (activation)": "inconclusive: -47.8% [activator]"}
{"smiles": "O=c1oc2c(F)cc(F)cc2cc1S(=O)(=O)c1ccc(F)cc1", "Potency": "inactive"}
{"smiles": "CC(Oc1cccc(Cl)c1)C(=O)Nc1ccc([N+](=O)[O-])cn1", "note": "(stereo unspecified)", "Potency": "inconclusive: 20 µM [activator, partial curve, poor fit]"}
